What all share (test): protein-binding microarray (PBM)
What all share (conditions): PBM: ~300 nM protein, 6 mM HEPES pH 7.8, 80 mM KCl, 0.5 mM EDTA, 0.5 mM EGTA, 6% glycerol, 35 ng/ul poly-dIdC, 1% milk, 1 h, room temperature; Ap Aiptasia and Nv Nematostella (sea anemones) / Co Capsaspora / Aq Amphimedon (sponge) / Dm Drosophila / Hu human; RHD is the Rel homology domain; high values mean tight binding; most listed sequences are background and not binding sites; double strand, one strand shown

Assay [1] deals with T1, GST-Co-NF-kB (UniProt F1ARL5).
T1 sequence: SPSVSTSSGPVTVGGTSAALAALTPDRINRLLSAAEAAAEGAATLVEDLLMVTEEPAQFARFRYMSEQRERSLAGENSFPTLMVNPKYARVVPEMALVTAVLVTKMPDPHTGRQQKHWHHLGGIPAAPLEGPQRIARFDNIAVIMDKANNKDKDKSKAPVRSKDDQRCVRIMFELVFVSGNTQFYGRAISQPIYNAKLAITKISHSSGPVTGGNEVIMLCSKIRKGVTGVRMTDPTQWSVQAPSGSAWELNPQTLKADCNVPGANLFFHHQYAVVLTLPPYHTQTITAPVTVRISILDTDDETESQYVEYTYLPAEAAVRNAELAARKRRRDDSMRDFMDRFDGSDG

The target in assay [2] is T2, GST-Aq-NF-kB (UniProt A9Y5G7).
T2 sequence: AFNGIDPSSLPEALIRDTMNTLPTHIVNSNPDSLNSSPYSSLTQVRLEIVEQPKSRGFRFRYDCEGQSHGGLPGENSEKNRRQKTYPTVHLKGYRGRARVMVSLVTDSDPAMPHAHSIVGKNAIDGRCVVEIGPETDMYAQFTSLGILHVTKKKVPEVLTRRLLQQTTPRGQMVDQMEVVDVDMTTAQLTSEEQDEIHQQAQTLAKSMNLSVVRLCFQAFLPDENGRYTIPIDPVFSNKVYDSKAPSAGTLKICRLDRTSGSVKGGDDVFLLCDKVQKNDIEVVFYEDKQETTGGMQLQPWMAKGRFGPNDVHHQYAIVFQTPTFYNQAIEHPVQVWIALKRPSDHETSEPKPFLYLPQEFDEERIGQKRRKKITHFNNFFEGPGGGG

In assay [3] the target is T3, GST-Dm-Relish (UniProt Q94527).
T3 sequence: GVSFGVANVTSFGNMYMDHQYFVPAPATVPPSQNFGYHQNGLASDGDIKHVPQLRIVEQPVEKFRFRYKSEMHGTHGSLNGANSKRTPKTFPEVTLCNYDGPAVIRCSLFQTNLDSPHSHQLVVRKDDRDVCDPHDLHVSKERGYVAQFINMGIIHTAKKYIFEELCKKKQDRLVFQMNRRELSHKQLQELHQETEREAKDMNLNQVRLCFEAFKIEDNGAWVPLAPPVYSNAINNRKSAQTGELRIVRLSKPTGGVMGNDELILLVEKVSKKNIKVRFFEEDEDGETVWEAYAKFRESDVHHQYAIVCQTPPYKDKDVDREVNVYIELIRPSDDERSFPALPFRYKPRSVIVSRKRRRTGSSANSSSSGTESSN

The list shows a part of the results, in another mix than the full data. For some of these results: The list includes weakly bound sequences.

As to “CCGATTAACATCAGAAAATCACCTGATGTTAATCGGGTCTTGATTCGCTTGACGCTGCTG”, the binding signal worked out at 0.765 z-score in assay [1] and 3.39 z-score in assay [2].

For “CCGATTAACATCAAAATTTCACCTGATGTTAATCGGGTCTTGATTCGCTTGACGCTGCTG”, the binding signal came to 0.358 z-score in assay [1] and 1.7 z-score in assay [2].

For the sequence “CCGATTAACATCAGGGGAAACTATGATGTTAATCGGGTCTTGATTCGCTTGACGCTGCTG”, the binding signal turned out to be 9.61 z-score in assay [1] and 5.53 z-score in assay [2].

“CCGATTAACATCAGGACTTTACCTGATGTTAATCGGGTCTTGATTCGCTTGACGCTGCTG”: the binding signal in assay [1] is -0.611 z-score; in assay [2], 4.69 z-score.

Consider “CCGATTAACATCAGGGGTATACCTGATGTTAATCGGGTCTTGATTCGCTTGACGCTGCTG”, for which the figures for the binding signal in assay [1] and in assay [2] were 3.98 z-score and 4.94 z-score, respectively.

Turning to “CCGATTAACATCACCCCTCCCCATGATGTTAATCGGGTCTTGATTCGCTTGACGCTGCTG”, the binding signal was determined as 3.58 z-score in assay [1] and 2.92 z-score in assay [2].

Turning to “CCGATTAACATCAATAGTTCCCCTGATGTTAATCGGGTCTTGATTCGCTTGACGCTGCTG”, the binding signal was 7.79 z-score in assay [1] and 5.01 z-score in assay [2].

Consider “CCGATTAACATCAATAAATTCCCTGATGTTAATCGGGTCTTGATTCGCTTGACGCTGCTG”, for which the binding signal in assay [1] turned out to be 4.25 z-score; in assay [2], 5.34 z-score.

Take “CCGATTAACATCAGGGGGGTACATGATGTTAATCGGGTCTTGATTCGCTTGACGCTGCTG”: the binding signal is 5.22 z-score in assay [1], 4.13 z-score in assay [3] and 3.31 z-score in assay [2].

On to “CCGATTAACATCAGGGGAGTAAATGATGTTAATCGGGTCTTGATTCGCTTGACGCTGCTG”, for which the binding signal in assay [1] turned out to be 4.51 z-score; in assay [2], 3 z-score.

In the case of “CCGATTAACATCAAGGGGATCCCTGATGTTAATCGGGTCTTGATTCGCTTGACGCTGCTG”, the binding signal was 3.82 z-score in assay [1], 10.3 z-score in assay [3] and 6.69 z-score in assay [2].

In the case of “CCGATTAACATCAGACAATTCCCTGATGTTAATCGGGTCTTGATTCGCTTGACGCTGCTG”, the binding signal came to 2.28 z-score in assay [1] and 4.77 z-score in assay [2].

Take “CCGATTAACATCAGGAGATCCCCTGATGTTAATCGGGTCTTGATTCGCTTGACGCTGCTG”: the binding signal in assay [1] stood at 2.55 z-score; in assay [3], 8.66 z-score; in assay [2], 8.6 z-score.

Take “CCGATTAACATCAAGAATTTCCCTGATGTTAATCGGGTCTTGATTCGCTTGACGCTGCTG”: the binding signal in assay [1] was determined as 5.07 z-score; in assay [2], 7.53 z-score.

As for “CCGATTAACATCAGGGACTTACCTGATGTTAATCGGGTCTTGATTCGCTTGACGCTGCTG”, the binding signal in assay [1] worked out at 0.529 z-score; in assay [2], 8.29 z-score.

As for “CCGATTAACATCAGGATAGTCCCTGATGTTAATCGGGTCTTGATTCGCTTGACGCTGCTG”, the results for the binding signal in assay [1] and in assay [2] were 0.801 z-score and 6.61 z-score, respectively.

Take “CCGATTAACATCAGGGGGTTAACTGATGTTAATCGGGTCTTGATTCGCTTGACGCTGCTG”: the binding signal in assay [1] came to 2.64 z-score; in assay [2], 5.06 z-score.

Turning to “CCGATTAACATCACCCCTCCCCCTGATGTTAATCGGGTCTTGATTCGCTTGACGCTGCTG”, the binding signal is 4.73 z-score in assay [1] and 4.12 z-score in assay [2].

As for “CCGATTAACATCAAGGGGGAGGGTGATGTTAATCGGGTCTTGATTCGCTTGACGCTGCTG”, the binding signal in assay [1] was found to be 4.4 z-score; in assay [2] it was 4.42 z-score.

For the sequence “CCGATTAACATCAGGGGATTAGATGATGTTAATCGGGTCTTGATTCGCTTGACGCTGCTG”, the binding signal in assay [1] came to 2.75 z-score; in assay [2], 3.91 z-score.

“CCGATTAACATCAAATTCCCAAATGATGTTAATCGGGTCTTGATTCGCTTGACGCTGCTG”: the values for the binding signal in assay [1] and in assay [2] were 2.55 z-score and 2.31 z-score, respectively.

“CCGATTAACATCAATTCCCCCCATGATGTTAATCGGGTCTTGATTCGCTTGACGCTGCTG”: the binding signal in assay [1] was 9.55 z-score; in assay [2], 5.8 z-score.

As to “CCGATTAACATCAGGGCCTTTTGTGATGTTAATCGGGTCTTGATTCGCTTGACGCTGCTG”, the binding signal is 0.114 z-score in assay [1] and 2.46 z-score in assay [2].

Regarding “CCGATTAACATCACACCCCCCCCTGATGTTAATCGGGTCTTGATTCGCTTGACGCTGCTG”, the binding signal came out at 5.16 z-score in assay [1] and 4.16 z-score in assay [2].

“CCGATTAACATCAGGGGAAACGATGATGTTAATCGGGTCTTGATTCGCTTGACGCTGCTG”: the binding signal in assay [1] is 6.65 z-score; in assay [2] it was 3.92 z-score.

Consider “CCGATTAACATCAGGCAATCCCCTGATGTTAATCGGGTCTTGATTCGCTTGACGCTGCTG”, for which the binding signal in assay [1] worked out at 1.6 z-score; in assay [3], 6.78 z-score; in assay [2] it was 7.01 z-score.

As for “CCGATTAACATCAGGGGGCGGGATGATGTTAATCGGGTCTTGATTCGCTTGACGCTGCTG”, the binding signal in assay [1] came out at 2.28 z-score; in assay [2], 4.03 z-score.

For “CCGATTAACATCAACTCCCCCCATGATGTTAATCGGGTCTTGATTCGCTTGACGCTGCTG”, the binding signal in assay [1] was determined as 6.49 z-score; in assay [2], 4.72 z-score.

For the sequence “CCGATTAACATCAGGGGGAAGAATGATGTTAATCGGGTCTTGATTCGCTTGACGCTGCTG”, the binding signal in assay [1] worked out at 9.93 z-score; in assay [2], 4.87 z-score.

In the case of “CCGATTAACATCAGGAAGATCCCTGATGTTAATCGGGTCTTGATTCGCTTGACGCTGCTG”, the binding signal in assay [1] came out at 0.37 z-score; in assay [2], 5.44 z-score.

For the sequence “CCGATTAACATCAAACATTCCCATGATGTTAATCGGGTCTTGATTCGCTTGACGCTGCTG”, the binding signal in assay [1] was determined as 2.38 z-score; in assay [2], 3.52 z-score.

For the sequence “CCGATTAACATCACTTCCCCCCCTGATGTTAATCGGGTCTTGATTCGCTTGACGCTGCTG”, the values for the binding signal in assay [1] and in assay [2] were 8 z-score and 4.94 z-score, respectively.

Regarding “CCGATTAACATCAGGGGTATTACTGATGTTAATCGGGTCTTGATTCGCTTGACGCTGCTG”, the results for the binding signal in assay [1] and in assay [2] were 3.37 z-score and 4.5 z-score, respectively.
